This note sets out measurements from PMC6451091.

The list shows a part of the results. For some assays here: At the low end of the ranking, values are background and their order means little. For some assays here: Measured with an extract: partners may take part in the binding.

One assay concerns the target PU.1 (IVT) (UniProt P17947). In words: protein-binding microarray (PBM). Particulars: 20 mM HEPES pH 7.9, 100 mM NaCl, 1 mM DTT, 0.2 mg/mL BSA, 0.02% Triton X-100, 2% milk, 0.4 mg/mL salmon testes DNA; 1 h; temperature not stated; high values mean tight binding; double strand, one strand shown; sequences stand for … in GCCTAGCAC…GTGCTAGGTCTTGATTCGCTTGACGCTGCTG
The sequence CCTGAGAGGAAGTGATGTTC had a binding signal of 4.31 z-score.
On the same count and under the same terms, with CAAATGAGGAACAGATGCGG the figure was 3.59 z-score; with CGAAAGGGGAAGTGCTATAC, 7.3 z-score.
Still for that read-out and setting: with AGAAAGGGGAAGTGGGGACA the figure was 7.03 z-score; with GCTAAGAGGAAGTGCTATCT, 5.81 z-score; with AAAAAGAGGAAATGGAGAAT, 5.91 z-score.
The same measure, in the same setting: with ATAGGGAGGAAGTGAAGATC the figure was 3.37 z-score; with GGAAAGAGGAACTGAATCAG, 6.53 z-score.
On to AGGGAGAGGAAGTGTGTCTG, for which the binding signal was determined as 3.65 z-score.
On the same count and under the same terms, with GAAATGAGGAAGTCTAACCT the figure was 7.55 z-score; with GAAAAGAGGAACTCAAATTG, 7.12 z-score; with GATATGAGGAAGTCCTCTGT, 5.68 z-score.
On the same count and under the same terms, with AGAGGGAGGAAGTGACAGTA the figure was 3.9 z-score; with AAAGGGGGGAAGTGGTTACA, 3.41 z-score; with CAAAGGGGGAAGTGCCACAC, 4.94 z-score.
The same measure, in the same setting: with GATAAGAGGAAATCCTCTGT the figure was 2.29 z-score; with GAAAACAGGAAGTCCCATAG, 6.82 z-score.
In turn, AAAAAGAGGAAGAGGAATAG displayed a binding signal of 5.98 z-score.
Same read-out and setting: with ACAAAAAGGAACTGTTCCCC the figure was 2.27 z-score; with AAAACAAGGAACTGGCTAGA, 2.96 z-score.
On the same count and under the same terms, with TGAAAGGGGAAGTGCCACTT the figure was 7.18 z-score; with AAGGTGAGGAACTACTGTGT, 2.24 z-score; with ACAAAAAGCAACTGTGCCCC, -0.297 z-score.
Regarding GAGATGAGGAAGTGCTACTA, the binding signal was 5.67 z-score.
Turning to TTTTTGAGGAACTGCCAAGC, the binding signal stood at 4.24 z-score.
The same measure, in the same setting: with GAAGGGAGGAAGTGGGGGAG the figure was 3.36 z-score; with AAAAAAAGGAAGTGAGATAA, 6.74 z-score.
Still for that read-out and setting: with GAACAAAGGAAGTGTTTCTT the figure was 1.78 z-score.
Same read-out and setting: with CAAAGAGGGAAGTGACAGTA the figure was 4.55 z-score; with AGGAGAGGGAAGTGAGAGAT, 2.61 z-score; with GGAAACAGGAAGTGATTGCT, 7.36 z-score.
With TAAAGGAGGAAGTAAGGGAG, the binding signal was found to be 5.91 z-score.
On the same count and under the same terms, with CAACTGAGGAAGTGATCTCA the figure was 3.75 z-score; with TTTTTAGAGAAGTACTGTGA, 3.11 z-score; with AGAAAGAGGAACTGGTTCCT, 6.82 z-score.
Sequence TAAGAGGGGAAGTGGCCACA had a binding signal of 4.43 z-score.
The same measure, in the same setting: with CGGAAGGGGAAGTGCTAAAC the figure was 5.63 z-score; with CCCATAGGGAAGTGCACTGA, 3.67 z-score; with CAATTGAGGAACTGTAGATG, 4.22 z-score.
The same measure, in the same setting: with GAAATGAGGAACTGGATCTT the figure was 6.39 z-score.

Another assay deals with PU.1 (endogenous, THP-1 nuclear extract) (UniProt P17947). In words: nuclear extract protein-binding microarray (nextPBM). The note with it: 20 mM HEPES pH 7.9, 100 mM NaCl, 1 mM DTT, 0.2 mg/mL BSA, 0.02% Triton X-100, 2% milk, 0.4 mg/mL salmon testes DNA; 1 h; temperature not stated; high values mean tight binding; double strand, one strand shown; sequences stand for … in GCCTAGCAC…GTGCTAGGTCTTGATTCGCTTGACGCTGCTG
For CCTGAGAGGAAGTGATGTTC, the binding signal stood at 4.13 z-score.
The same measure, in the same setting: with CAAATGAGGAACAGATGCGG the figure was 3.75 z-score; with CGAAAGGGGAAGTGCTATAC, 7.34 z-score.
The same measure, in the same setting: with AGAAAGGGGAAGTGGGGACA the figure was 6.92 z-score; with GCTAAGAGGAAGTGCTATCT, 6.24 z-score.
Still for that read-out and setting: with AAAAAGAGGAAATGGAGAAT the figure was 6.19 z-score.
Sequence ATAGGGAGGAAGTGAAGATC registered a binding signal of 3.33 z-score.
On the same count and under the same terms, with GGAAAGAGGAACTGAATCAG the figure was 6.82 z-score.
Same read-out and setting: with AGGGAGAGGAAGTGTGTCTG the figure was 3.48 z-score; with GAAATGAGGAAGTCTAACCT, 7.11 z-score; with GAAAAGAGGAACTCAAATTG, 6.82 z-score.
Sequence GATATGAGGAAGTCCTCTGT displayed a binding signal of 6.37 z-score.
Same read-out and setting: with AGAGGGAGGAAGTGACAGTA the figure was 3.73 z-score.
Same read-out and setting: with AAAGGGGGGAAGTGGTTACA the figure was 3.21 z-score; with CAAAGGGGGAAGTGCCACAC, 5.44 z-score.
The sequence GATAAGAGGAAATCCTCTGT returned a binding signal of 2.03 z-score.
On the same count and under the same terms, with GAAAACAGGAAGTCCCATAG the figure was 7.04 z-score; with AAAAAGAGGAAGAGGAATAG, 6.43 z-score.
The same measure, in the same setting: with ACAAAAAGGAACTGTTCCCC the figure was 1.86 z-score; with AAAACAAGGAACTGGCTAGA, 2.83 z-score.
The same measure, in the same setting: with TGAAAGGGGAAGTGCCACTT the figure was 7.17 z-score; with AAGGTGAGGAACTACTGTGT, 2.08 z-score.
For the sequence ACAAAAAGCAACTGTGCCCC, the binding signal is -1.2 z-score.
For the sequence GAGATGAGGAAGTGCTACTA, the binding signal is 6.3 z-score.
On the same count and under the same terms, with TTTTTGAGGAACTGCCAAGC the figure was 4.52 z-score; with GAAGGGAGGAAGTGGGGGAG, 3.3 z-score; with AAAAAAAGGAAGTGAGATAA, 6.75 z-score.
Consider GAACAAAGGAAGTGTTTCTT, for which the binding signal was determined as 1.56 z-score.
On the same count and under the same terms, with CAAAGAGGGAAGTGACAGTA the figure was 5.01 z-score; with AGGAGAGGGAAGTGAGAGAT, 2.77 z-score; with GGAAACAGGAAGTGATTGCT, 7.09 z-score.
Same read-out and setting: with TAAAGGAGGAAGTAAGGGAG the figure was 6.34 z-score; with CAACTGAGGAAGTGATCTCA, 3.55 z-score; with TTTTTAGAGAAGTACTGTGA, 3.2 z-score.
Still for that read-out and setting: with AGAAAGAGGAACTGGTTCCT the figure was 7.18 z-score; with TAAGAGGGGAAGTGGCCACA, 3.79 z-score; with CGGAAGGGGAAGTGCTAAAC, 6.05 z-score.
In turn, CCCATAGGGAAGTGCACTGA registered a binding signal of 3.98 z-score.
On the same count and under the same terms, with CAATTGAGGAACTGTAGATG the figure was 4.63 z-score.
Same read-out and setting: with GAAATGAGGAACTGGATCTT the figure was 6.86 z-score.
